# The supplement of paper PMC10185492
# The other results are listed elsewhere or left out. These are enrichments in a pooled selection; single values are uncertain.
# System: SARS-CoV-2 3CLpro (nsp5)
# Assay: substrate phage enrichment score (protease-eluted vs HEPES control, +1 offset) (ratio); higher = better cleaved substrate
# Details: selection round: 4; protease elution time: 15 min
# Method: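 Random heptapeptide substrate phage display (M13 pIII fusion, heptapeptide between an N-terminal biotinylated AviTag GLNDIFEAQKIEWHE and pIII; phages immobilised on streptavidin) eluted by cleavage with 50 nM protease in 20 mM HEPES at 37 °C. Selected phages were NGS sequenced, and the enrichment score is (reads in protease sample + 1)/(reads in HEPES blank-selection control + 1).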
row,Substance,substrate phage enrichment score
1,KCHTEPK,1
2,GDCRGVR,> 25
3,SVRDDPR,> 65
4,CRWPVKS,4.75
5,NSQDARA,2.67
6,SGLSGGT,1.67
7,AWKGASP,2.84
8,ASQTGKM,> 28
9,RPEALWR,0.783
10,SHKLISE,0.778
11,PHGMPHR,45.5
12,KHSHAGK,> 22
13,PHVIEKG,6.5
14,QHSWHTR,4.24
15,NSKTESD,0.316
16,NKTSESY,> 28
17,SQPARDC,2.48
18,RPPYTAR,4.5
19,STPALIQ,2.11
20,TWLERNG,8.33
21,SKAEERT,> 27
22,AQREQQM,24
23,ATNMYAP,> 29

row,Substance,substrate phage enrichment score
1,QCKYSRQ,2.26
2,CSLSMPG,0.15
3,ASMARSS,13
4,GAAAQHH,1.65
5,ARPQSRT,9
6,VAVGNRQ,> 24
7,AGCSVCA,4.07
8,TTVQYGQ,> 25
9,SNPRELT,> 44
10,HSQMTVP,> 37
11,HADNVTD,1
12,APSIGSR,6.71
13,VTPSDLQ,9.33
14,VGSETSQ,3.29
15,CDHIKVT,> 22
16,SAAAQQQ,1.99
17,WTHAGTQ,> 29
18,QPRERGE,> 36
19,EHQRSSD,> 43
20,GHREEAA,4
21,HCFRAKR,0.0571
22,VRPHLII,1.29
23,VVHDVKQ,0.158

row,Substance,substrate phage enrichment score
1,CDRGGHG,0.5
2,YRDPGRR,2.57
3,VKPRAQQ,0.294
4,TSGPMNQ,> 37
5,FQQCEPL,1.32
6,PSNTTAH,0.733
7,TCSAAHH,2.6
8,WEAAHHH,0.571
9,KPVPVSE,> 29
10,LKARSQH,1.31
11,HLNPEPI,6.9
12,CCVRPQN,> 38
13,SHDSNLM,17.5
14,INDLADG,19.3
15,TRSPRPH,> 64
16,YCSCTSD,> 24
17,ANHLNPG,3.67
18,SAGAHHH,2.06
19,TSGFENR,8.36
20,ETSSVPD,2.38
21,LQPKSGQ,> 25
22,RASILQA,> 51
23,LNSEDLL,> 40

row,Substance,substrate phage enrichment score
1,TAVPILQ,> 42
2,GRNERPP,> 31
3,APASTLQ,> 36
4,TTLQSDR,> 60
5,RASQRHG,0.0769
6,PLHTRLQ,> 36
7,ELHFQGG,1.88
8,SPMHLMR,1.73
9,KFRGLGD,> 57
10,THQNVRQ,1.29
11,EPQVNGQ,7
12,ARHADSW,10.5
13,PTLSGER,3.12
14,YKAAHHH,2.22
15,LGGIRLH,3.23
16,QDGTATR,2.25
17,PWDSKVY,1.18
18,VRPHIIT,0.692
19,RVEPFPR,1.58
20,HRDRRDT,> 103
21,NALPWQQ,0.389
22,QPGNMEL,0.6
23,LQQKTHT,> 31

row,Substance,substrate phage enrichment score
1,PAIHESR,16.5
2,PGQARPD,0.304
3,FGAAHHH,0.611
4,VHLPVPT,7.67
5,SRKPGAR,0.17
6,AVSAPGN,3.78
7,PDGCDHH,11.8
8,QAKCNQQ,> 28
9,RSAPFSQ,3.6
10,GPYRHGS,5.5
11,SRGPCLM,> 43
12,VKTSSLQ,> 23
13,KGCTPWR,0.6
14,LEQENSE,0.2
15,NPTAHHH,0.6
16,DCRLQSW,20.5
17,KADCVNW,1.61
18,PTTSVTF,0.107
19,SECDPRD,1.6
20,RSCVLQG,49.8
21,PTRTKGQ,> 81
22,VQHHMMG,> 59
23,CGGGWER,> 24

row,Substance,substrate phage enrichment score
1,AYHQSRP,1.33
2,HATAHHH,4.3
3,HHDRQPH,> 33
4,RHCLSCL,9.83
5,QGFDETT,3
6,WKAAHHH,0.0275
7,KSNAHWQ,> 34
8,KPYTTRP,> 32
9,PLPNFQG,> 80
10,SILQSAK,> 72
11,PTVTHLQ,> 113
12,PRSGQPQ,> 24
13,LNQEEAA,0.3
14,SSASQLY,6.67
15,RNPTQLN,> 45
16,DSSLILQ,30.5
17,CSTRPNL,2.67
18,VPDTFQP,0.315
19,QRYHLEI,0.3
20,CENWSAQ,> 40
21,FVDQWHT,> 35
22,CHLEPRT,2.7
23,LTQPCQR,0.464

row,Substance,substrate phage enrichment score
1,YPQVELR,9
2,SGSCWPA,> 79
3,AWRPGES,9.33
4,LLHEDFI,10.5
5,THLQAKC,41.4
6,SCQRSPR,0.529
7,SDAASSN,> 40
8,AIGGYVC,2.69
9,CTHSRKV,1.46
10,ATEAFQT,1.63
11,HPMSQDQ,3.4
12,PERCNAR,0.194
13,CPTTHHA,4.67
14,SAAAHHQ,1.47
15,VNPLCKA,> 23
16,SLIEGTR,0.786
17,PSRPRYN,2.82
18,LSKEQWM,5.5
19,PSPVYIR,1.33
20,QPTTRHD,2.57
21,SSRAMQQ,1.25
22,CGAAAHH,0.294
23,LYIQGGS,2.11

row,Substance,substrate phage enrichment score
1,GASAHHH,1.25
2,SARHEFS,> 33
3,LYQVSSG,> 35
4,IQGGSCV,1.15
5,RCMPRSQ,> 21
6,SDGWLKD,> 21
7,VLEKNTL,6.45
8,RSVCTLH,> 25
9,SLNRFPH,18.2
10,QGPIMSC,> 23
11,WPMCESH,> 28
12,QVHVLER,10
13,GRYMLIK,2.25
14,LQEEVCI,5.5
15,TAGCYPE,> 25
16,PDKLKDG,> 26
17,RKNATLQ,> 170
18,SRPDWCR,0.103
19,FKPTVTT,1.23
20,QQYSILG,> 32
21,PTTTVRQ,> 26
22,RGTTTLQ,> 34
23,ECTRLRT,1.65
